Experimental data from paper PMC7923178, “Binding of Amyloid β(1–42)-Calmodulin Complexes to Plasma Membrane Lipid Rafts in Cerebellar Granule Neurons Alters Resting Cytosolic Calcium Homeostasis” (International Journal of Molecular Sciences, 2021).

Assay: Aggregation state of Aβ(1–42) solutions, photoinduced cross-linking and Tricine-SDS-PAGE
Settings: 177 μM; photoinduced cross-linking, Tricine-SDS-PAGE

Question: Which “monomers in stock solutions” value does the source give for “Aβ(1–42): Unlabeled amyloid β(1–42) peptide synthesized and supplied by StabVida” here?
Answer: The value was “not detected”.

Question: What about the “predominant aggregation state in stock solutions” value of the same substance?
Answer: Its value is “dimers were the predominant aggregation state”.
